Results published in ChEMBL document CHEMBL1201862, “PubChem BioAssay data set” (2004).
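Cultured in 96-well plates, cells were exposed to test compound for 48 hours across five concentrations. Abbreviation: GI50, concentration required for 50% inhibition of growth.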 The source made the active and inactive calls. No stated cut-off is given here; in the data, active = GI50 up to about 1.1 µM and inactive = higher.

test system: NCI-H322M; experiment: growth of human tumour cells (NCI), 48 h

Row | Structure (SMILES) | GI50
1 | COc1ccc2cc1Oc1ccc(cc1)CC1c3c(cc(OC)c4c3Oc3cc5c(cc3O4)CCNC5C2)CCN1C (configuration not stated) | inactive: 1.89 µM
2 | Nc1nc(N)c2c(Cl)c(CNc3ccc(C(=O)NC(CC(=O)O)C(=O)O)cc3)ccc2n1 (configuration not stated) | active: < 0.01 µM
3 | CC(=O)OC1COC(Nn2c(=O)[nH]c3ccccc3c2=O)C(OC(C)=O)C1OC(C)=O (configuration not stated) | inactive: > 100 µM
4 | COC(=O)[C@@H]1CO[C@H](C(C)(C)C)N1C(=O)N1C=CC(=O)C[C@H]1C | inactive: > 100 µM
5 | CCCOc1nc(N)c2cnn(C3CCCCO3)c2n1 (configuration not stated) | inactive: > 100 µM
6 | CC(C)(C)C(=O)OCC1C(=O)OCC1C(=O)N1Cc2cc3ccccc3nc2C1 (configuration not stated) | inactive: 17.8 µM
7 | COc1ccc(C(O)CNC(=O)c2ccccc2)cc1 (configuration not stated) | inactive: > 100 µM
8 | CC1CC[C@@]2(OC1)OC1C[C@H]3[C@@H]4CC=C5CC(OC6OC(CO)C(OC7OC(CO)C(O)C(OC8OCC(O)C(O)C8O)C7OC7OC(CO)C(O)C(O)C7O)C(O)C6O)CCC5(C)[C@H]4CCC3(C)C1[C@@H]2C (some centres not stated) | inactive: 4.81 µM
9 | [N-]=[N+]=Nc1cc(=O)oc2ccccc12 | inactive: > 100 µM
10 | O=C(O)C1CC2C=CCC(C2)C1 (configuration not stated) | inactive: > 100 µM
11 | O=C(CN1CCN(Cc2ccccc2)CC1)c1ccc2[nH]c(=O)oc2c1 | inactive: > 100 µM
12 | COc1ccc(-c2cc(-c3ccccc3)c3c(n2)-c2ccccc2NC(=O)C3)cc1 | inactive: 80.2 µM
13 | O=C(O)c1ccccc1/C=N\N(CCO)C1=NCCN1 | inactive: > 100 µM
14 | COC1=CC(=O)c2ccccc2C1(CCC=C(C)C)C1=NC(C)(C)CO1 (configuration not stated) | inactive: > 100 µM
15 | c1ccc(C2=NNC3c4ccccc4-c4ccccc4N3C2)cc1 (configuration not stated) | inactive: 45.6 µM
16 | CN(C)CN(C)c1nc(N(C)C)nc(N(C)CN(C)C)n1 | inactive: > 100 µM
17 | Cc1ccc(C2C(Cl)C(=O)N2n2cnc3ccccc3c2=O)cc1 (configuration not stated) | inactive: > 100 µM
18 | CC1=NC=C(O)c2ccccc2O1 | inactive: > 100 µM
19 | C[C@]12CC[C@H]3[C@@H](CCC4=CC(=O)CC[C@@H]43)[C@@H]1CC[C@@H]2OC1(O)C(=O)c2ccccc2C1=O | inactive: 77.1 µM
20 | CCOC(=O)CC(NC(=O)c1ccc(/N=N/N(C)C)cc1)C(=O)OCC (configuration not stated) | inactive: > 100 µM
21 | Cc1cc(=O)n2nc(CSc3nnc(S)s3)sc2n1 | inactive: > 100 µM
22 | C=CCN1C(=O)/C(=C/c2ccc(OC)cc2)NC1=S | inactive: 78.2 µM
23 | CC1SC2=NC3=C(c4ccccc4C3=O)C(c3ccccc3Cl)N2C1=O (configuration not stated) | inactive: > 100 µM

Row | Structure (SMILES) | GI50
24 | O=CN1CCC23CC(O)CCC2C1Cc1cc(Oc2nnnn2-c2ccccc2)cc(O)c13 (configuration not stated) | inactive: > 100 µM
25 | Nc1nc(=O)[nH][nH]1 | inactive: > 100 µM
26 | CN(C)CCN(C)C(=O)c1cccc2cccc(C(=O)O)c12 | inactive: > 100 µM
27 | O=C1Nc2ccc(S(=O)(=O)O)cc2/C1=C1/Nc2ccc(Br)cc2C1=O | inactive: > 100 µM
28 | Brc1cc(CCOC2CCCCO2)c(-c2sccc2CCOC2CCCCO2)s1 (configuration not stated) | inactive: > 57.9 µM
29 | Cc1n[nH]c(=O)n1-c1cccnc1 | inactive: > 100 µM
30 | C=C(CO[Si](C)(C)C(C)(C)C)C(C)=O | inactive: > 84.5 µM
31 | CC1(C)OP(=O)(c2ccccc2)C=C1Sc1ccc([N+](=O)[O-])cc1[N+](=O)[O-] (configuration not stated) | inactive: > 100 µM
32 | CC1CCCN1CCCOC(=O)c1ccc(OC2C=CCCC2)cc1 (configuration not stated) | inactive: 50.1 µM
33 | CC1(C)C(N2CCOCC2)CS1(=O)=O (configuration not stated) | inactive: > 10 µM
34 | Cc1n[nH]c(=O)n1N=C(c1ccccc1)c1ccccc1 | inactive: > 100 µM
35 | COc1cc2c(cc1OC)C1=C(C=O)c3ccc(OC)c(OC)c3C(O)N1CC2 (configuration not stated) | inactive: 27.5 µM
36 | C[Si](C)(N[Si](C)(C)OCCc1ccccc1)OCCc1ccccc1 | inactive: > 100 µM
37 | C=CC(Cl)(CBr)CCC(Br)C(C)(C)Cl (configuration not stated) | inactive: 22.4 µM
38 | Cc1c(C#N)c(N)[nH]c(=S)c1C#N | inactive: > 100 µM
39 | Cc1c2[nH]c3ccc(Br)cc3c2c(C)c2nccc(O)c12 | inactive: 15.7 µM
40 | Cn1c(=O)sc2cc(C(=S)N3CCOCC3)ccc21 | inactive: > 100 µM
41 | COC(c1ccc(C(C)(C)C)cc1)(c1ccc(C(C)(C)C)cc1)c1cc(C(O)(c2cc(C(OC)(c3ccc(C(C)(C)C)cc3)c3ccc(C(C)(C)C)cc3)c(C)cc2C)c2cc(C(OC)(c3ccc(C(C)(C)C)cc3)c3ccc(C(C)(C)C)cc3)c(C)cc2C)c(C)cc1C | inactive: > 100 µM
42 | CCOC(=O)C1S/C(=N\C(=N)N[N+](=O)[O-])N=C1C (configuration not stated) | inactive: > 100 µM
43 | CC(=O)C(=O)NC1/C=C(C)\C=C/C(O)C/C=C(C)\C=C/C(O)CC2OC(=O)C1(C)C(=O)C2C (configuration not stated) | inactive: > 100 µM
44 | N#CCCN(CCC#N)c1ccc(C(=N/c2ccc(Cl)cc2)/N=N/c2ccc(Cl)cc2)cc1 | inactive: 24.1 µM
45 | Cc1nnc(Nc2ccc(Cl)cc2)o1 | inactive: 8.81 µM
46 | COC(=O)[C@H]1N[C@@H](C(=O)OC)C23CCC[C@H]2CC[C@]1(C(OC)OC)C3 | inactive: > 100 µM

Row | Structure (SMILES) | GI50
47 | COC1OC(CS(=O)(=O)O)C(O)C(O)C1O (configuration not stated) | inactive: > 100 µM
48 | NC1=NC(c2ccccc2)CC(c2cc(Cl)cc(Br)c2O)=N1 (configuration not stated) | inactive: 18.7 µM
49 | Cc1cc(NS(=O)(=O)c2ccc(Nc3c4ccccc4nc4c(C(=O)N5CCN(CCO)CC5)ccc(Cl)c34)cc2)no1 | inactive: > 100 µM
50 | O=C(C1=C(C(=O)c2ccccc2)SC2(S1)C(C(=O)c1ccccc1)=C(C(=O)c1ccccc1)Sc1c2ssc1=O)c1ccccc1 | inactive: 66.2 µM
51 | Cc1ccc(/N=N/c2c(C)nn(-c3ccccc3)c2-c2ccccc2)c(Br)c1 | inactive: > 100 µM
52 | CN1CCC(C(O)(c2ccccc2)c2ccc(Br)cc2)CC1 (configuration not stated) | inactive: 26.7 µM
53 | CC(C)(C)c1ccc(O)c(Br)c1 | inactive: > 100 µM
54 | COc1cc2ccc(CC(N)=O)cc2cc1OC | inactive: > 100 µM
55 | COc1ccc(C2=C(N)c3c(Cl)cccc3C2=O)cc1 | inactive: > 100 µM
56 | COc1cccc(-c2c(C#N)c(N)nc3c2CCS(=O)(=O)c2ccc(C)cc2-3)c1 | inactive: > 100 µM
57 | COc1cccc(CCn2c(N)c(-c3cc(Cl)cc(Cl)c3)c3ccc([N+](=O)[O-])cc3c2=O)c1 | inactive: 3.74 µM
58 | CN1CC(c2ccccc2)C(O)(C2(c3ccccc3)CN(C)CC(c3ccccc3)C2=O)C(c2ccccc2)C1 (configuration not stated) | inactive: > 100 µM
59 | N#Cc1c(-c2ccccc2)c(CN2CCCCC2)c(=O)n2c1[nH]c1ccccc12 | inactive: 13.9 µM
60 | CCc1cccc(C)c1NC(=O)C(=O)CC(=O)c1ccc(Cl)s1 | inactive: > 100 µM
61 | NCC[Se][Se]CCN | inactive: 3.77 µM
62 | N/N=C1/C2CN3CCN(C2)CC1(c1ccc([N+](=O)[O-])cc1)C3 | inactive: > 100 µM
63 | OC(c1cc2ccccc2[nH]1)C(O)(c1cc2ccccc2[nH]1)c1cc2ccccc2[nH]1 (configuration not stated) | inactive: 13.7 µM
64 | CCN(CC)c1ccc(C2SCC(=O)N2c2ccc(NC(=O)c3ccc(N4C(=O)CSC4c4ccc(N(CC)CC)cc4)cc3)cc2)cc1 (configuration not stated) | inactive: > 100 µM
65 | Cc1nn(-c2ccccc2)c2nc3c(c(C)nn3-c3ccccc3)c(-c3ccc(C(F)(F)F)cc3)c12 | inactive: > 100 µM
66 | COc1ccc(C[C@H]2COC(=O)[C@@H]2Cc2cccc(Br)c2)cc1OC | inactive: 54.7 µM
67 | CC(C)(C)[Si](C)(C)O[C@@H](C(=O)OC1C=CCCC1)[C@@H](NC(=O)c1ccccc1)c1ccccc1 (some centres not stated) | inactive: 37.3 µM
68 | CN(C)CCS/C(=N\c1ccccc1)N1CCCCC1 | inactive: 22.6 µM
69 | COc1cc2c(cc1OCCCC(=O)Nc1cc(C(=O)Nc3cc(C(=O)Nc4cc(C(=O)NCCCN(C)C)n(C)n4)n(C)n3)n(C)n1)N=CC1CCCN1C2=O (configuration not stated) | inactive: 23.8 µM

Row | Structure (SMILES) | GI50
70 | O=C(O)CSc1nnc(/C=C/c2ccccc2)[nH]1 | inactive: > 100 µM
71 | CCCCC(=O)N/S(=N/C(=O)c1ccccc1)C(Cl)(Cl)Cl (configuration not stated) | inactive: > 100 µM
72 | CC1NCCc2c1[nH]c1cc(O)ccc21 (configuration not stated) | inactive: > 100 µM
73 | [N-]=[N+]=NC1(Cc2ccccc2)C(=O)Nc2ccccc2C1=O (configuration not stated) | inactive: > 100 µM
74 | CCOC(=O)C1=C(Nc2cccc(OC)c2)OCC1=O | inactive: > 100 µM
75 | CN(C)c1cccc2c1C(=O)C=CC21CCc2ccc(N(C)C)c3c(N(C)C)ccc1c23 (configuration not stated) | inactive: 16.6 µM
76 | O=C(CCC1C(=O)NC(=S)NC1=O)c1ccc2ccccc2c1 | inactive: > 100 µM
77 | O=S1(=O)OCCOS(=O)(=O)C1Cc1cccc2ccccc12 | inactive: 19.7 µM
78 | O=C(CCc1ccc(O)cc1)NCCc1cccc(OCc2ccccc2)c1 | inactive: 47.1 µM
79 | NCCNCc1c2ccccc2c(CNCCN)c2ccccc12 | inactive: 12.7 µM
80 | O=C(CCCN1CCC2(CC1)NC(=O)c1ccccc1O2)c1ccc(F)cc1 | inactive: > 100 µM
81 | CCC(C)[C@@H](NCc1ccccc1)[C@H](OCc1ccccc1)[C@@H]1COC(C)(C)O1 (some centres not stated) | inactive: 25.4 µM
82 | Fc1nc(Sc2ncnc3nc[nH]c23)nc(-c2c3ccccc3c3sc4ccccc4n23)n1 | inactive: > 100 µM
83 | CCCCCCCCCCCC(=O)OC[C@H](C[As](=O)(O)O)OC(=O)CCCCCCCCCCC | inactive: 16.8 µM
84 | C[N+](C)(C)/C=N\c1cccc2c1CCCC2 | inactive: > 100 µM
85 | O=C(CC1(O)C(=O)Nc2c(Cl)cc(Cl)cc21)c1ccc([N+](=O)[O-])cc1 (configuration not stated) | inactive: > 74.6 µM
86 | O=C(Cc1nc2ccc([N+](=O)[O-])cc2nc1O)C(=O)Nc1ccccc1[N+](=O)[O-] | inactive: > 100 µM
87 | CC(C)N(C)C(=O)C12C3C4C1C1C2C3C41C#N (configuration not stated) | inactive: > 100 µM
88 | CNc1ccc([N+](=O)[O-])cc1C(=O)N1CCC[C@H]1CO | inactive: > 100 µM
89 | CC(C)(C)OC(=O)/C=C/C(=O)O/C=C/[N+](=O)[O-] | inactive: > 100 µM
90 | C=C1C(=O)C[C@@]23CCC[C@@]12CC(OCOC)C3 (some centres not stated) | inactive: 13.2 µM
91 | CC1=NN(C(=O)c2ccc(Cl)cc2)C(=O)/C1=C/c1ccccc1O | inactive: > 100 µM
92 | COc1ccc(-c2cc(O)c3c(C)ccnc3n2)cc1 | inactive: 29.9 µM
